Test [1] deals with T1, ASPP2-V5 (UniProt Q13625).
T1 sequence: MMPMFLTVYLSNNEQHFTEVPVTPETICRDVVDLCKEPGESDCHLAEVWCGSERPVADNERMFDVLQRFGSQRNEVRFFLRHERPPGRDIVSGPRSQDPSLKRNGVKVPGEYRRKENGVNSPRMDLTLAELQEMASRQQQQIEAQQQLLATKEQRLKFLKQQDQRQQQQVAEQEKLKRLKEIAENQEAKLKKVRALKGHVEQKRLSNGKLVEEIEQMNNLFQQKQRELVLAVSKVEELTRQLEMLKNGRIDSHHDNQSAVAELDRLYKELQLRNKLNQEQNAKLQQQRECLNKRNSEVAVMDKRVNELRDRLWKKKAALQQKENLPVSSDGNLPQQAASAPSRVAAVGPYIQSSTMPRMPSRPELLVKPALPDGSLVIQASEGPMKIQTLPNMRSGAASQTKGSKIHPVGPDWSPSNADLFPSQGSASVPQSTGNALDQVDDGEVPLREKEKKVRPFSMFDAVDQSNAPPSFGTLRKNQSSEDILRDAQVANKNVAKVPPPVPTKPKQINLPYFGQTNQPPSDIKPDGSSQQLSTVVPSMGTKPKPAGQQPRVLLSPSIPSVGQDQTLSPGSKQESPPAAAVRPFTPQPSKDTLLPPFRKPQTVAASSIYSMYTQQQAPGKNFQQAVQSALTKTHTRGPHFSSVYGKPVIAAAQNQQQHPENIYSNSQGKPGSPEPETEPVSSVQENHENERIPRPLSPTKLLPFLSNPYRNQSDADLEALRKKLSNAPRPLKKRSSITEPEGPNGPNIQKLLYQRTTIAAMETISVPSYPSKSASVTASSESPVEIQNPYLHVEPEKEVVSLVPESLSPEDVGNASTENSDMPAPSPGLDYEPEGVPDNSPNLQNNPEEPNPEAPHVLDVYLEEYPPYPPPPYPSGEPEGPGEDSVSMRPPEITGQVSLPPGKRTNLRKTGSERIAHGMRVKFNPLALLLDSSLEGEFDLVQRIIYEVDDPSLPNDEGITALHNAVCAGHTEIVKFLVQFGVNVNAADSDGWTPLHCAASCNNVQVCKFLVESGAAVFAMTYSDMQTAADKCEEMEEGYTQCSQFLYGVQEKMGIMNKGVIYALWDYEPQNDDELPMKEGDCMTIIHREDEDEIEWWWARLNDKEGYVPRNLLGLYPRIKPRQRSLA
The experiment in a line: co-IP; U2OS cells expressing V5-tagged constructs; immunoprecipitation with anti-V5; endogenous Par3 and PP1α detected by immunoblot.

Chains of the proteins cited; added tags and fusions are not shown.
UniProt Q8TEW0: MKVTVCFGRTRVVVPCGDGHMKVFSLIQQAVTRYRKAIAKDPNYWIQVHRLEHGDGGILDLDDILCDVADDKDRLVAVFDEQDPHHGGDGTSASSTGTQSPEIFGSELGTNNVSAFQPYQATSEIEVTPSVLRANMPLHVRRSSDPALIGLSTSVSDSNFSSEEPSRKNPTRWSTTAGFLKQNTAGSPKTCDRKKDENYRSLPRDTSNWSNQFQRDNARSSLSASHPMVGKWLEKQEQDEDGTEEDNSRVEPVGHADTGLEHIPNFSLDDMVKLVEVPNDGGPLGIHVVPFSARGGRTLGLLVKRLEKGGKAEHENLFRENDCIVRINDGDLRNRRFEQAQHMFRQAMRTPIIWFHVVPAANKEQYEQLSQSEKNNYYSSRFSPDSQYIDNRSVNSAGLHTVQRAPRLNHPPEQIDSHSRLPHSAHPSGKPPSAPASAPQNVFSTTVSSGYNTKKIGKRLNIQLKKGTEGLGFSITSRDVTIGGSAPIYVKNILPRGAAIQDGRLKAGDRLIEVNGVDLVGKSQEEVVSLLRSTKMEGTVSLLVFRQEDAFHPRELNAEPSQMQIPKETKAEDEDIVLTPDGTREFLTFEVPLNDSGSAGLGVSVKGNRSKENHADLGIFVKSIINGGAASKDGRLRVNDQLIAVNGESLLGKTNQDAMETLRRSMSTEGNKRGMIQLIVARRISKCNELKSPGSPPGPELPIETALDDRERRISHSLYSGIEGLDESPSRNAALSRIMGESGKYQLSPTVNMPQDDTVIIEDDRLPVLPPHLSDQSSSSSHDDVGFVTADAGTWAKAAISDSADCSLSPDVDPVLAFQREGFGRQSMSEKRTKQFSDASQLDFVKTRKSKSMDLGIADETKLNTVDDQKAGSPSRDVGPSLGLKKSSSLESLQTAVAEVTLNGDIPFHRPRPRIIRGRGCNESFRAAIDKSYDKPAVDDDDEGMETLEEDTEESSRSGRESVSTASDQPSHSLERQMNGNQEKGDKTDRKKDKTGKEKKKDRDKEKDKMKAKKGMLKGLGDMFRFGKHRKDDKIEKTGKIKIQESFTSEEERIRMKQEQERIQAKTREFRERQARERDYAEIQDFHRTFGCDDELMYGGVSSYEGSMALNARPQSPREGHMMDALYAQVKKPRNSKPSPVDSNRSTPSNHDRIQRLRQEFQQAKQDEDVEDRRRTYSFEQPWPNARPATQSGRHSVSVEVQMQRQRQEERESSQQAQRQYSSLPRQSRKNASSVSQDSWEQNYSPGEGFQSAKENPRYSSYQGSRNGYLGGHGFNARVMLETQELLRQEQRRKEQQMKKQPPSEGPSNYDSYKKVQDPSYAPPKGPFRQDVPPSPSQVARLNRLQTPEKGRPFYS

In test [2] the target is T2, iASPP-V5 (UniProt Q8WUF5).
T2 sequence: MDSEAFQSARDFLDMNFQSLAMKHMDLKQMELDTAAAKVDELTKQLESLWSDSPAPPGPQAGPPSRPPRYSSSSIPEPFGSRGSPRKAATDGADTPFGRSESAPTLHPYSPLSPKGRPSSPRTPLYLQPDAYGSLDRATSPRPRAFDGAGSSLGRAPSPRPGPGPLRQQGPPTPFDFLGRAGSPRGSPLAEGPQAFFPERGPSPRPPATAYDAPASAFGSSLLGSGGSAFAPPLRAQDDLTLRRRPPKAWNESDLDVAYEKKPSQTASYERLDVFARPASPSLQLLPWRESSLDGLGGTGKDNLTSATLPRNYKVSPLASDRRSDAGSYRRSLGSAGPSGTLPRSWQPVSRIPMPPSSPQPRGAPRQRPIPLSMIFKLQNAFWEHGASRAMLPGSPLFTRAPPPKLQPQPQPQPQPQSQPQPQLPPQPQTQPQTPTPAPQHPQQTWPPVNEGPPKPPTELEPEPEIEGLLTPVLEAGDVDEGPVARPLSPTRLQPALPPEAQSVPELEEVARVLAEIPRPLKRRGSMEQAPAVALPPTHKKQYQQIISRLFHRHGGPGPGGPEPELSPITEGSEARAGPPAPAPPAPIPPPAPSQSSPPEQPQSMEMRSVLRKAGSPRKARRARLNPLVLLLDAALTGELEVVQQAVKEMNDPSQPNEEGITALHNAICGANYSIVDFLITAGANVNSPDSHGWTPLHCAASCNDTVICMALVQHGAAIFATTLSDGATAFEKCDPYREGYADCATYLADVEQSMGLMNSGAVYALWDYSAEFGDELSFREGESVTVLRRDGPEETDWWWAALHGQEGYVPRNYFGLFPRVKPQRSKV
The description is as above.

Test [3] deals with T3, ASPP2 (endogenous, Caco-2 cells) (human (endogenous in Caco-2)) (UniProt Q13625).
T3 sequence: T1 sequence
The experiment in a line: co-IP; endogenous ASPP2 immunoprecipitated from Caco-2 lysates with anti-ASPP2 DX50.13 (anti-Gal4 as negative control); cells at low, medium and high density; 50 mM Tris-HCl pH 8, 150 mM NaCl, 1 mM EDTA, 1% Triton X-100; immunoblot.

The source of these data is PMC4216074.

No constants are given. Whether binding was seen depends on the method and setting. Binding seen in cells or lysates may run through a third protein. Some results given as binding are weak or reduced against the parent protein; the word gives no strength. For part of these data: Sequences can lack the tags named with a protein.

With “Par3 (endogenous) (from UniProt Q8TEW0 1-1356)”, the binding entry is on record as “binds” in test [1], “no binding” in test [2] and “binds” in test [3].
